Data reported in PubChem BioAssay AID1671193 (National Center for Advancing Translational Sciences (NCATS), 2021).
Out of some 150,000 compounds screened, about 180 (0.12%) were called active. This list was built around the results that the source calls inconclusive (neither active nor inactive); the mix of calls is not that of the screen. The call rests on the fitted dose curve; in most records, active means well fitted cell-killing curve with a large enough effect; inconclusive means small, poorly fitted or top-dose-only effect, or effect the other way; inactive means flat fitted curve, though single readings scatter. Potencies of inconclusive entries are doubtful fits and often do not repeat.

Experiment: GF-AFC viability counterscreen for inhibitors of alpha-synuclein gene (SNCA) expression; further: nearly all actives have a fitted effect of over 30% in size;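 on activity change, negative = cytotoxicity: 0% = DMSO-treated cells and -100% = medium-only wells without cells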
Details: HEK-293-SNCA-luc viability, GF-AFC fluorescence, 24 h; activity change, negative = cytotoxicity: at 57.1 µM (top of the series) unless noted
How it was run: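 HEK-293-SNCA-luc cells (1500/well) plated 24 h, then exposed 24 h to a dilution series; GF-AFC added 30 min at 37C, fluorescence 405/540 nm; normalised to medium-only and DMSO wells, Hill fit.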
Potency means the concentration at half of the fitted maximal effect; tags describe the fitted curve by direction and shape.

Which Potency does the source give for C=CC(=O)N1CCc2ccc(-n3c(=O)ccc4cnc5ccc(-c6cnn(C)c6)cc5c43)cc21 here?
The Potency was inconclusive: 19.2 µM [cytotoxic, partial curve].

With COc1ccc(-c2ccc3c(n2)CN(Cc2ccccc2C)C(=O)CO3)cc1OC as the compound, how does the Potency read?
Its Potency is inconclusive: 50.1 µM [cytotoxic, partial curve, poor fit].

For O=C1CC(c2ccccc2)N(C(=O)CNC(=O)c2[nH]nc3c2CCc2ccccc2-3)CCCCCN1 (stereo not given), which “activity change, negative = cytotoxicity” value is on record?
The value was inactive: -3.52%.

Which Potency does the source give for O[C@@H](COc1cccc2ncccc12)CN1CCN(C2c3ccccc3[C@@H]3[C@H](c4ccccc42)C3(F)F)CC1 (stereo not given in full) here?
The Potency was inconclusive: 27.1 µM [cytotoxic, partial curve, poor fit].

Which Potency does the source give for COc1ccc(C(=O)N2CCOCC3(CN(Cc4cc(F)cc(F)c4)C3)C2)cc1 here?
Its Potency is inconclusive: 3.16 µM [cytotoxic, full curve, poor fit].

With OCC(O)CN1CCN(c2ccccc2)CC1 (stereo not given) as the compound, how does the Potency read?
Its Potency is inconclusive: 29.9 µM [cytotoxic, single point].

For C=Cc1ccc(Cn2c(C(=O)O)c(CNCCc3ccco3)c3ccc(C)cc32)cc1, which Potency is on record?
Its Potency is inconclusive: 20 µM [cytotoxic, partial curve, poor fit].

For COc1ccc(Nc2ccnc(N3CCN(C(=O)c4ccccc4Cl)CC3)n2)cc1, which “activity change, negative = cytotoxicity” value is on record?
Its value is inactive: -11.8%.

For CC(C)CNC(=O)c1csc(-c2cccc(OC(C)C)c2)n1, which Potency is on record?
The Potency was inconclusive: 2.51 µM [cytotoxic, full curve, poor fit].

With CNC(=O)c1cccc(-c2cnc3[nH]cc(CC(=O)NCc4cccs4)c3c2)c1 as the compound, how does the Potency read?
Its Potency is inconclusive: 31.6 µM [cytotoxic, partial curve, poor fit].

For C[S+](=O)([O-])N1CC2(CCCN(Cc3ccccn3)C2)Cc2ccccc21 (stereo not given), which “activity change, negative = cytotoxicity” value is on record?
Its value is inactive: -4.22%.

For COc1ccc(-c2nc(CSCC(=O)N3CCN(c4ccccc4F)CC3)c(C)o2)cc1, which Potency is on record?
The Potency was inconclusive: 8.91 µM [cytotoxic, full curve, poor fit].

With O=C(CCS(=O)(=O)c1ccc(Br)s1)Nc1cc(C(F)(F)F)cc(C(F)(F)F)c1 as the compound, how does the Potency read?
Its Potency is inconclusive: 31.6 µM [cytotoxic, partial curve].

With O=c1c(-c2cccs2)nc2cnc(N3CCOCC3)nc2n1Cc1cccs1 as the compound, how does the Potency read?
The Potency was inconclusive: 12.6 µM [rising, partial curve, poor fit].

Which Potency does the source give for O=C(Cc1ccccc1)N1CCC2(CC1)COc1ccccc1NC2=O here?
Its Potency is inconclusive: 25.1 µM [cytotoxic, partial curve, poor fit].

For CCOC(=O)c1cccc(NC(=O)CSc2ncc3c(n2)-c2ccc(Cl)cc2N(Cc2ccccc2)S3(=O)=O)c1, which Potency is on record?
The Potency was inconclusive: 39.8 µM [rising, single point].

With COc1ccc(CNC(=O)CCCc2nnc3n(C(C)C)c(=O)c4sccc4n23)cc1 as the compound, how does the Potency read?
Its Potency is inconclusive: 39.8 µM [cytotoxic, single point].

For CCCOc1nccnc1NC1CCN(C(=O)c2ccsc2)CC1, which “activity change, negative = cytotoxicity” value is on record?
The value was inactive: 10%.

With COc1cccc(OCCCN)c1-c1cc(Nc2cnc(C#N)cn2)n[nH]1 as the compound, how does the Potency read?
Its Potency is inconclusive: 0.474 µM [cytotoxic, partial curve, poor fit].

For CCNc1cc(N2CCC(CCC(=O)NCCc3ccccn3)CC2)ncn1, which “activity change, negative = cytotoxicity” value is on record?
Its value is inactive: -14.5%.

With CC(C)(C)c1ccc(C(=O)N2CCCC(c3nc4c(nnn4Cc4cccc(F)c4)c(=O)[nH]3)C2)cc1 (stereo not given) as the compound, how does the Potency read?
The Potency was inconclusive: 31.6 µM [cytotoxic, single point].

Which Potency does the source give for CCOc1ccc(NC(=O)CSc2c3c(nc4ccccc24)CCCC3)cc1 here?
Its Potency is inconclusive: 39.8 µM [cytotoxic, single point].

With Cc1ccc(C)c(C(=O)N2CCCC(n3cc(-c4noc(C)n4)nn3)C2)c1 (stereo not given) as the compound, how does the Potency read?
Its Potency is inconclusive: 10 µM [rising, partial curve, poor fit].

For Fc1ccc(-n2cc(CCCCN3CCC4(CC3)OCc3ccccc34)c3ccccc32)cc1, which Potency is on record?
The Potency was active: 18.9 µM.

Which Potency does the source give for CC(C)OCCCN1C(=O)c2[nH]nc(-c3ccccc3O)c2C1c1ccccc1F (stereo not given) here?
The Potency was inconclusive: 35.5 µM [cytotoxic, partial curve, poor fit].

With CCc1ccccc1NC(=O)c1cc2nc(-c3ccc(Br)cc3)cc(C(F)(F)F)n2n1 as the compound, how does the Potency read?
The Potency was inconclusive: 8.91 µM [cytotoxic, partial curve, poor fit].

Which Potency does the source give for CN(Cc1cccc(C(F)(F)F)c1)S(=O)(=O)c1cccs1 here?
Its Potency is inconclusive: 8.91 µM [cytotoxic, partial curve].

With O=c1c(-c2ccc(F)cc2)nc2cnc(Nc3ccccc3)nc2n1Cc1cccs1 as the compound, how does the Potency read?
The Potency was inconclusive: 3.98 µM [rising, single point].

With COCCC1(NS(=O)(=O)c2cccnc2)CCN(S(C)(=O)=O)CC1 as the compound, how does the Potency read?
Its Potency is inconclusive: 1.12 µM [rising, full curve, poor fit].

With O=C1CC2(CCN(C(=O)C3CCCN(C(=O)Nc4ccc(Cl)cc4)C3)CC2)Oc2ccccc2N1 (stereo not given) as the compound, how does the Potency read?
Its Potency is inconclusive: 7.94 µM [cytotoxic, partial curve, poor fit].

For Cc1ccc(CN2CCCCCCNC(=O)[C@@H]3C[C@@H](C(=O)NCCc4cnc[nH]4)C[C@@H]32)o1, which “activity change, negative = cytotoxicity” value is on record?
Its value is inactive: -3.7%.

For COc1ccccc1S(=O)(=O)Cc1ccc(C(=O)N2CCN(c3cc(Cl)ccc3C)CC2)o1, which Potency is on record?
The Potency was inconclusive: 28.2 µM [rising, partial curve, poor fit].

Which Potency does the source give for COc1cccc(Cn2nnc3c(=O)[nH]c(C4CCCN(C(=O)c5ccccc5Cl)C4)nc32)c1 (stereo not given) here?
The Potency was inconclusive: 25.1 µM [cytotoxic, single point].

With C[C@H](O)C(=O)C1=Nc2c(nc(N)[nH]c2=O)NC1 as the compound, how does the Potency read?
Its Potency is inconclusive: 22.4 µM [rising, single point].

Which “activity change, negative = cytotoxicity” value does the source give for O=C(N[C@H]1CCN2C(=O)c3cc(-c4ccc(Cl)cc4)ccc3NC(=O)[C@H]12)c1cccs1 here?
The value was inactive: -12%.

For CC1(COc2ccccc2)COc2ccc(C(=O)Nc3ccc4[nH]ccc4c3)cc2N1 (stereo not given), which “activity change, negative = cytotoxicity” value is on record?
The value was inactive: -22.2% [at 87.6 µM].

Which Potency does the source give for CC1=C[C@@H](CNC2CCOCC2)[C@H](C(C)C)C[C@H]1Cc1nc2ccccc2n1C here?
The Potency was inconclusive: 22.4 µM [cytotoxic, single point].

Which “activity change, negative = cytotoxicity” value does the source give for Cc1ccc(C(=O)N2CCCCCCN(C)C(=O)[C@@H]3CCC[C@@H]32)s1 here?
Its value is inactive: 12.2%.

With Cc1nc2cnc(Oc3ccccc3)nc2n(C2CC2)c1=O as the compound, how does the Potency read?
The Potency was inconclusive: 7.08 µM [cytotoxic, single point].

With O=C(NC1CCCCC1)N1c2ccccc2CC1c1noc(C2CCOCC2)n1 (stereo not given) as the compound, how does the “activity change, negative = cytotoxicity” value read?
The value was inactive: -14.8%.

With COc1cccc(Nc2ncc3nc(-c4cccs4)c(=O)n(C[C@H]4CCCO4)c3n2)c1 as the compound, how does the Potency read?
Its Potency is inconclusive: 10 µM [rising, partial curve].

For CC(=O)Nc1ccc(C2(C(=O)N(C)Cc3ccccc3)CCCCC2)cc1, which “activity change, negative = cytotoxicity” value is on record?
The value was inactive: -12.5%.

With CN1CCN(c2ncc3nc(-c4ccc(Cl)cc4)c(=O)n(C4CC4)c3n2)CC1 as the compound, how does the Potency read?
Its Potency is inconclusive: 14.1 µM [rising, partial curve].

With COc1cc(NC(=O)N2C[C@@H](F)C[C@H]2C(=O)N2CCc3ccccc3C2)cc(OC)c1 as the compound, how does the Potency read?
Its Potency is inconclusive: 25.1 µM [cytotoxic, single point].

For CCCn1c(=N)c(C(=O)NCc2cccnc2)cc2c(=O)n3ccccc3nc21, which Potency is on record?
The Potency was inconclusive: 3.16 µM [rising, full curve].

Which Potency does the source give for COc1ccc(-c2noc([C@@H]3Cc4nc[nH]c4CN3C(=O)NC3CCCCC3)n2)cc1 here?
The Potency was inconclusive: 8.91 µM [cytotoxic, full curve].

For COc1ccc(CC(=O)N2CCN(C(=O)c3nc4cccnc4n(Cc4ccc(OC)cc4)c3=O)CC2)cc1, which Potency is on record?
Its Potency is inconclusive: 0.794 µM [cytotoxic, full curve].

With O=C(NCc1ccccc1)c1ccc2nnc(Cc3ccco3)n2c1 as the compound, how does the “activity change, negative = cytotoxicity” value read?
The value was inactive: 5.96%.

Which Potency does the source give for C=C1CC[C@@H]2[C@](C)(CO)[C@H](O)CC[C@@]2(C)[C@@H]1C/C=C1/C(=O)OCC1O (stereo not given in full) here?
Its Potency is inconclusive: 23.8 µM [cytotoxic, partial curve, poor fit].

With CN1CCC(C(=O)N2Cc3ccccc3OC3(CCN(C(=O)N(C)C)CC3)C2)CC1 as the compound, how does the Potency read?
The Potency was inconclusive: 1.78 µM [cytotoxic, full curve].

For COc1ccc(C(=O)N2CCCC(C(=O)N3CCC(N4CCOCC4=O)CC3)C2)cc1 (stereo not given), which Potency is on record?
The Potency was inconclusive: 3.16 µM [cytotoxic, partial curve, poor fit].

Which Potency does the source give for Cc1nn(CC(=O)N2CCC(C)CC2)c(=O)c2cc3occc3n12 here?
The Potency was inconclusive: 22.4 µM [cytotoxic, partial curve, poor fit].

For CC1=C[C@@H](CNC(=O)CN(C)C)[C@H](C(C)C)C[C@H]1Cc1nc2ccc(Cl)cc2[nH]1, which Potency is on record?
Its Potency is inconclusive: 25.1 µM [cytotoxic, partial curve, poor fit].

With COC(=O)Cn1ccc2cc(S(=O)(=O)N3CCCCCC3)ccc21 as the compound, how does the Potency read?
The Potency was inconclusive: 44.7 µM [rising, partial curve, poor fit].

With CSc1ccc(-c2nc3c(C)cccn3c2Nc2ccc3c(c2)OCCO3)cc1 as the compound, how does the Potency read?
The Potency was inconclusive: 28.2 µM [cytotoxic, partial curve, poor fit].

Which Potency does the source give for N=c1n(CCN2CCCCC2)c2ccccc2n1CC(O)COc1ccccc1 (stereo not given) here?
The Potency was inconclusive: 39.8 µM [cytotoxic, single point].

With O=C(NCCc1ccccc1)c1cnc2n[nH]c(-c3ccccc3)c2n1 as the compound, how does the “activity change, negative = cytotoxicity” value read?
The value was inactive: -7.72% [at 87.6 µM].

For N#Cc1ccc(CN2CCC3(CC2)CCN(C(=O)c2cc(C(F)(F)F)cc(C(F)(F)F)c2)CC3)cc1, which Potency is on record?
Its Potency is inconclusive: 8.91 µM [cytotoxic, partial curve, poor fit].

With CC(C)CN(CCNC(=O)c1cn(C)c2ccc(S(=O)(=O)N3CCOCC3)cc2c1=O)CC(C)C as the compound, how does the “activity change, negative = cytotoxicity” value read?
Its value is inactive: -9.81%.

With COc1ccc2nc(CO[C@H]3CN(Cc4ccc(S(C)(=O)=O)cc4)C[C@H]3F)[nH]c2c1 as the compound, how does the Potency read?
The Potency was inconclusive: 8.91 µM [rising, partial curve, poor fit].
